The values that follow come from PMC7454948.

Amino acid sequences for entries named in this document (tags omitted).
UniProt P38903: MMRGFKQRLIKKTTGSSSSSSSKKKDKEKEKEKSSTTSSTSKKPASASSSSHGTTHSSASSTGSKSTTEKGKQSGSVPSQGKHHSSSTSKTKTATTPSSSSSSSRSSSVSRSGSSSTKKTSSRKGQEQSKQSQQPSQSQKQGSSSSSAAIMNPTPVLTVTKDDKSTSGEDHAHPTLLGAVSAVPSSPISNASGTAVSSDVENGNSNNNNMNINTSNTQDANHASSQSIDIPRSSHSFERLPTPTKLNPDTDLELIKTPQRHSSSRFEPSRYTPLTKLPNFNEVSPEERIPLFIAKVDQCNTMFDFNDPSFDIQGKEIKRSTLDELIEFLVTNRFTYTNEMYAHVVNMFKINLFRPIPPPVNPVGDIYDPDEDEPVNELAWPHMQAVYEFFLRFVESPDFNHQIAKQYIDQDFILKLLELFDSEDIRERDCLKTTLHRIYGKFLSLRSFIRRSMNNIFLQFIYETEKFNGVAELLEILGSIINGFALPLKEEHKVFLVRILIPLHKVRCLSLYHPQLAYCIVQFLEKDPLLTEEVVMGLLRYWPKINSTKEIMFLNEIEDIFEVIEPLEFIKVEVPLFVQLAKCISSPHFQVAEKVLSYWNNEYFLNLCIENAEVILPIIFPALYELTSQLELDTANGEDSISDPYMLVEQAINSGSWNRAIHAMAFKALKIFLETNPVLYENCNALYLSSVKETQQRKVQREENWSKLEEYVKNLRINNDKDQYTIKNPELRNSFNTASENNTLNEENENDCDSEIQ

Experiment [1] addresses T1, GST-Sgo1 1–163 (S. cerevisiae) (UniProt Q08490).
T1 sequence: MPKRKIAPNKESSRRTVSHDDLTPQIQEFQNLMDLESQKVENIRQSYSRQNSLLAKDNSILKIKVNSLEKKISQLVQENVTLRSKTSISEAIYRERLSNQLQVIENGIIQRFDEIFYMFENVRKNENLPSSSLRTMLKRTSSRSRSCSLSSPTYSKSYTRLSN
In words: pull-down; GST-Sgo1 proteins (100 ug) on glutathione magnetic beads, rotated with yeast lysate 2 h at 4°C; eluates immunoblotted with anti-FLAG (Ycg1), anti-HA (Smc2), anti-MYC (Rts1); only the target purified. A general note: In western blotting, separated proteins are transferred to a membrane and probed.

The target in experiment [2] is T2, GST-Sgo1 N51I (S. cerevisiae) (UniProt Q08490).
T2 sequence: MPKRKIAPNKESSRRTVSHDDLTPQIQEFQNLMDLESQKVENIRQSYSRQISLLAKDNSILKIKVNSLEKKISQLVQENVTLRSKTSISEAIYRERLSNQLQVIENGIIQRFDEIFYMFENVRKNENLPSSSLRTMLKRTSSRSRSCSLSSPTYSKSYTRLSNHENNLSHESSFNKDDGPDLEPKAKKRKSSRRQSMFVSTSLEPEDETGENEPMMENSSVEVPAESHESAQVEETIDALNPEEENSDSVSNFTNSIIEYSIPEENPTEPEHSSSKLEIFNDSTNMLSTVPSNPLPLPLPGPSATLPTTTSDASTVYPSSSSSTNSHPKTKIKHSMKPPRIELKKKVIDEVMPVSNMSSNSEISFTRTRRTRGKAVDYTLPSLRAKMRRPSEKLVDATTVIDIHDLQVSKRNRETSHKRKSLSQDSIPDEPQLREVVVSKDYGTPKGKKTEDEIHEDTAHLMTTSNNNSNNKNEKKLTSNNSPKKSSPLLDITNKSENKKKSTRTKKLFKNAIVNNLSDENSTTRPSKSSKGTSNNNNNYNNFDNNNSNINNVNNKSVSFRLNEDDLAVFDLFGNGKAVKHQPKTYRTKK
The description is as above.

Experiment [3] concerns the target T3, GST-Sgo1wt (full length Sgo1-GST) (S. cerevisiae) (UniProt Q08490).
T3 sequence: T2 sequence with I51N
Described as above.

The next experiment addresses T4, Brn1-GFP (S. cerevisiae) (UniProt P38170).
T4 sequence: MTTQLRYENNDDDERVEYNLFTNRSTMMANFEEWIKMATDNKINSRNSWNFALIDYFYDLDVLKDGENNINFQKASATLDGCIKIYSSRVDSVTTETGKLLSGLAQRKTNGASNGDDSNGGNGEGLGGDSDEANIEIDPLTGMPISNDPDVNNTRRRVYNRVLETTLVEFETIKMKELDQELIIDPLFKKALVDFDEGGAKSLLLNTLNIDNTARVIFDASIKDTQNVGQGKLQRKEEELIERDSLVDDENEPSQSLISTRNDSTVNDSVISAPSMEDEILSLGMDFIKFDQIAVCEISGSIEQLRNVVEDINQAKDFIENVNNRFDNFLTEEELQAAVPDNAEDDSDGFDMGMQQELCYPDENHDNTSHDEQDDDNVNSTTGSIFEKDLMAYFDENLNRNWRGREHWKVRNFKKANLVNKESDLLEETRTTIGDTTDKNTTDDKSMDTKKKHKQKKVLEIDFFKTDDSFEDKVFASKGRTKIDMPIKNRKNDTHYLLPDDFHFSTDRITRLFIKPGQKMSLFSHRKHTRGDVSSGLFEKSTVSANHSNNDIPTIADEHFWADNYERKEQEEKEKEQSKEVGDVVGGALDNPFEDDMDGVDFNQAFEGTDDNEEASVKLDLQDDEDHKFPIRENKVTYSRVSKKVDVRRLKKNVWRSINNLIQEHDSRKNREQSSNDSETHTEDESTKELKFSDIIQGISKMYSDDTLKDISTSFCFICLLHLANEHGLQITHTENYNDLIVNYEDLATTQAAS
In words: co-IP; GFP-Trap agarose beads, yeast lysates in native lysis buffer (20 mM HEPES pH 7.5, 0.5% Triton X-100, 200 mM NaCl), 2 hours at 4°C; Smc2-GFP or Brn1-GFP pulled down, Sgo1-TAP detected with PAP.

The target of another experiment is T5, Smc2-GFP (S. cerevisiae) (UniProt P38989).
T5 sequence: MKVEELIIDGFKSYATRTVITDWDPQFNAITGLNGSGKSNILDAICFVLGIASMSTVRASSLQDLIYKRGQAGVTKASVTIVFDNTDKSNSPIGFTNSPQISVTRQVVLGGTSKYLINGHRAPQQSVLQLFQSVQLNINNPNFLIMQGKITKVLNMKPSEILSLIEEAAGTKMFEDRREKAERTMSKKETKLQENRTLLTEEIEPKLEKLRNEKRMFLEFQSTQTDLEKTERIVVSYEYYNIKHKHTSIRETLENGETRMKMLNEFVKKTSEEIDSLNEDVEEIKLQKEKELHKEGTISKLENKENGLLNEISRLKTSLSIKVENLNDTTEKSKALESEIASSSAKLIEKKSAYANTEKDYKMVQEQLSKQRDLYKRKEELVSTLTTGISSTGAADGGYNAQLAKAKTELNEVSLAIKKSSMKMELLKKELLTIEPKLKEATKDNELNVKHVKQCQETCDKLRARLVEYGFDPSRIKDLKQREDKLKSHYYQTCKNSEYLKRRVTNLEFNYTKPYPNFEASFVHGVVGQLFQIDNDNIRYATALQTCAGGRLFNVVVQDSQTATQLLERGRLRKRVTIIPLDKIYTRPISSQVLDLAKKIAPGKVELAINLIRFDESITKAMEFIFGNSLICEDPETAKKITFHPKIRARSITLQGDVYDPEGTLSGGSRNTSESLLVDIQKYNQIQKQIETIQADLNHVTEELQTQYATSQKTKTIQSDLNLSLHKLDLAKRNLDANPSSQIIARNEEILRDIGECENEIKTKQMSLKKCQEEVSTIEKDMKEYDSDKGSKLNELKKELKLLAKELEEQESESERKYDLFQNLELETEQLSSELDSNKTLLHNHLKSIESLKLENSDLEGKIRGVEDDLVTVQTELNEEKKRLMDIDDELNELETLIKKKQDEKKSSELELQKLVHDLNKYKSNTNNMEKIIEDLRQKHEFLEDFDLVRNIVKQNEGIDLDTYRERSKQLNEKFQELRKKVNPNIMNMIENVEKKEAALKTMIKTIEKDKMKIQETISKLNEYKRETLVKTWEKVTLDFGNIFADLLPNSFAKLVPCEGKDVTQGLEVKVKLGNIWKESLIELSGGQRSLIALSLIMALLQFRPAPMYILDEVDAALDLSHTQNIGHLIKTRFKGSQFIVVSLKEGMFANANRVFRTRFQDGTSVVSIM
Described as above.

Numbering of substitutions follows the chain as printed. In names and notes the source's numbering stands. These are yes or no findings as the source states them, for the method shown. Binding seen in cells or lysates may run through a third protein. Some binding calls cover weakened binding; strength is not graded here. Sequences can lack the tags named with a protein.

As to Rts1-9Myc (from UniProt P38903 1-757), the figures for the binding result in experiment [1], in experiment [2] and in experiment [3] were “binds”, “no binding” and “binds”, respectively.

B1: Sgo1-TAP (protein, UniProt Q08490 1-590)
chain: T2 sequence with I51N
For the molecule B1, the binding entry in the experiment with Brn1-GFP (S. cerevisiae) and in the experiment with Smc2-GFP (S. cerevisiae) was “binds” each time.

B2: Sgo1-N51I (TAP-tagged, in yeast) (protein, UniProt Q08490 1-590)
chain: T2 sequence
Consider B2, for which the binding result with Smc2-GFP (S. cerevisiae) is given as “binds”.

B3: Sgo1 S151E (TAP-tagged, in yeast) (protein, UniProt Q08490 1-590)
chain: T2 sequence with I51N, S151E
Turning to B3, in the experiment with Smc2-GFP (S. cerevisiae), the binding entry is recorded as “binds”.

B4: Sgo1-13A (TAP-tagged, in yeast) (protein, UniProt Q08490 1-590)
chain: MPKRKIAPNKESSRRTVSHDDLTPQIQEFQNLMDLESQKVENIRQSYSRQNSLLAKDNSILKIKVNSLEKKISQLVQENVTLRSKTSISEAIYRERLSNQLQVIENGIIQRFDEIFYMFENVRKNENLPSSSLRTMLKRAAARARACALAAPAYAKAYARLANHENNLSHESSFNKDDGPDLEPKAKKRKSSRRQSMFVSTSLEPEDETGENEPMMENSSVEVPAESHESAQVEETIDALNPEEENSDSVSNFTNSIIEYSIPEENPTEPEHSSSKLEIFNDSTNMLSTVPSNPLPLPLPGPSATLPTTTSDASTVYPSSSSSTNSHPKTKIKHSMKPPRIELKKKVIDEVMPVSNMSSNSEISFTRTRRTRGKAVDYTLPSLRAKMRRPSEKLVDATTVIDIHDLQVSKRNRETSHKRKSLSQDSIPDEPQLREVVVSKDYGTPKGKKTEDEIHEDTAHLMTTSNNNSNNKNEKKLTSNNSPKKSSPLLDITNKSENKKKSTRTKKLFKNAIVNNLSDENSTTRPSKSSKGTSNNNNNYNNFDNNNSNINNVNNKSVSFRLNEDDLAVFDLFGNGKAVKHQPKTYRTKK
Consider B4, for which the binding entry in the experiment with Brn1-GFP (S. cerevisiae) and with Smc2-GFP (S. cerevisiae) was “binds” throughout.
